Experimental data reported in PMC4336329 (PLoS ONE, 2015).
The whole screen tested about 310,000 compounds, of which about 14,000 (4.5%) showed an effect of 50% or more. The effect is printed as a negative number. This is one part of the list.

target: human ether-à-go-go-related gene (hERG) potassium channel (human, UniProt Q12809); experiment: primary screen, population patch clamp on CHO cells stably expressing hERG
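Note: peak tail current of the secondary pulse compared with the same well before compound.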

human ether-à-go-go-related gene (hERG) potassium channel, sequence (Q12809 whole entry, looked up): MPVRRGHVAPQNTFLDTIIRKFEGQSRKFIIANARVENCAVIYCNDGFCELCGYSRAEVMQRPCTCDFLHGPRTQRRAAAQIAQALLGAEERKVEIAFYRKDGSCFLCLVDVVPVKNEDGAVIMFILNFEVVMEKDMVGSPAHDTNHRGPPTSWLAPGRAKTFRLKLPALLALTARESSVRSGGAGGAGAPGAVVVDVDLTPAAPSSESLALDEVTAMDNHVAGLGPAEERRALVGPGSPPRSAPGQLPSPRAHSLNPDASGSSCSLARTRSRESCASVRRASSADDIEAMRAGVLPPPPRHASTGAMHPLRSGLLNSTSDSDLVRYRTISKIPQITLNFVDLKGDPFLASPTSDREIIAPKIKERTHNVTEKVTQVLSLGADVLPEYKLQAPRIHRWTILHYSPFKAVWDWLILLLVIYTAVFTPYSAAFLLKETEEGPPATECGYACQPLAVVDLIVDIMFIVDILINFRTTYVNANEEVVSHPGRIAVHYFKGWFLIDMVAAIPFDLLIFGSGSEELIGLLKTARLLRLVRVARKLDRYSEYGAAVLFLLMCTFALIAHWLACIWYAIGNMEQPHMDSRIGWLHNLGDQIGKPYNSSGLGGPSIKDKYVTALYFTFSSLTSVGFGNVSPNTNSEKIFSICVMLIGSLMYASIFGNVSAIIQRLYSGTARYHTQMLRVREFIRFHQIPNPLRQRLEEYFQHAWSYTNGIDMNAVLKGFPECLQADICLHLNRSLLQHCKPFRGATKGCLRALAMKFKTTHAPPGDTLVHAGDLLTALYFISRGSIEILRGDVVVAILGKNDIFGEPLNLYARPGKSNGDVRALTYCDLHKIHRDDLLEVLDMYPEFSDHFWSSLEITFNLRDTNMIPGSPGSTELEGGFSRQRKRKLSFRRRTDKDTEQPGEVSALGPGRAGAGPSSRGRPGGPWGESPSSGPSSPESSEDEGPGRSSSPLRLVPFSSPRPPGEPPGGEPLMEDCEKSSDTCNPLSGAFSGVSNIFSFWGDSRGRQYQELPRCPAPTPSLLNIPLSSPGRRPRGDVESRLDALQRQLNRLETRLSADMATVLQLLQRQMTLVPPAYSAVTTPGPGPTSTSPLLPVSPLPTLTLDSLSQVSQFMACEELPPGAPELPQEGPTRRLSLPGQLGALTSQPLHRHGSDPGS

Row | Structure (SMILES) | hERG current change (%, negative = inhibition) at 10uM [%]
1 | Cc1cc(C)n(-c2cc(N3CCN(S(=O)(=O)c4ccc(Br)cc4)CC3)ccc2[N+](=O)[O-])n1 | -21.3
2 | COc1ccc([C@H]2CC(=O)C=C(c3ccc4ncccc4c3)C2)cc1 | -3.25
3 | Cc1nc2ncnn2c(C)c1CCC(=O)N1CCc2ccccc21 | -80.6
4 | O=C(COc1ncnc2sccc12)N1CCc2ccccc2C1 | 0.518
5 | CCc1ccc(CN2CCCC(C(=O)Nc3ccc(-c4cscn4)cc3)C2)o1 (stereo not drawn) | -25.6
6 | CCOc1ccc(NC(=O)c2cc(S(=O)(=O)N3CCOCC3)cs2)cc1 | 12.4
7 | CN1CCN(c2ccccc2NC(=O)COc2ccc(Cl)cc2)CC1 | -59.9
8 | Cc1ccc(NC(=O)CSc2ncccc2C(=O)Oc2cccc([N+](=O)[O-])c2)cc1Cl | 15.6
9 | O=C(c1cccs1)N(Cc1ccc(F)cc1)C1CCS(=O)(=O)C1 (stereo not drawn) | -21.1
10 | O=C(CSc1nnc(-c2cccs2)n1-c1cccc(Cl)c1)c1cccc2c1OCCO2 | 21.2
11 | CCOc1cc(-c2nnc(NC(=O)c3ccco3)o2)cc(OCC)c1OCC | -1.13
12 | O=C(NCCCc1ccc(F)cc1)C1CCC(=O)N(CCCN2CCCC2=O)C1 (stereo not drawn) | 15.1
13 | CCN(CC)S(=O)(=O)c1ccc(/C=C/C(=O)Nc2c(C)n(C)n(-c3ccccc3)c2=O)cc1 | 19.4
14 | COc1ccc(NC(=O)c2nc[nH]c2C(=O)N[C@@H](C)c2ccccc2)cc1 | -10.4
15 | O=C1CCC(C(=O)N2CCCC(C(=O)c3ccc4ccccc4c3)C2)=NN1 (stereo not drawn) | -8.31
16 | C/C(=N\NC(=O)OC(C)(C)C)c1ccc(-n2ccnc2)cc1 | -16.9
17 | O=C(COc1ccccc1[N+](=O)[O-])Nc1cc(C(=O)O)cc(C(=O)O)c1 | 15.7
18 | COc1ccc(CNC(=O)Cn2c(=O)n(CC(=O)N3CCCCC3)c(=O)c3sccc32)cc1 | 15.6
19 | Cl.O=C(O)c1ccc(CNCc2cccc(Cl)c2Cl)cc1 | -8.92
20 | O=C1CC(c2cccc(Cl)c2)Cc2nc(N3CCOCC3)ncc21 (stereo not drawn) | -9.56
21 | CCCCC(=O)NC(=S)Nc1cccc(NC(=O)c2ccco2)c1 | 3.61
22 | CC(=O)Nc1ccc(NS(=O)(=O)c2ccc3c(c2)NC(=O)CC(=O)N3)cc1 | -31.1

Row | Structure (SMILES) | hERG current change (%, negative = inhibition) at 10uM [%]
23 | COc1c(C(CC(C)C)OC(C)=O)ccc2c1C(=O)OCc1cc(C)cc(O)c1O2 (stereo not drawn) | -2.31
24 | COc1ccc(-c2cc([C@H]3[C@@H]4C=CCC[C@@]4(C)C(=O)N3Cc3ccccc3)ccc2F)cc1OC | 12.5
25 | CCN1CCN(CCOc2ccccc2OCc2ccccc2)CC1.O=C(O)C(=O)O | -73.2
26 | O=C(NCc1nnc2c3ccccc3c(-c3ccccc3)nn12)c1ccccc1Cl | -78.9
27 | CCC(C)(C)C1CCc2[nH]nc(C(=O)O)c2C1 (stereo not drawn) | 9.18
28 | O=C(NCCc1ccccc1)C(=O)NCc1ccncc1 | 12.1
29 | O=C1CCN(Cc2ccc([N+](=O)[O-])cc2)CCN1CCO | -6.93
30 | COc1ccc(NC(=O)c2ccc(Oc3ncccn3)cc2)cc1 | 10.4
31 | COc1ccc(CCNC(=O)COc2ncnc3ccccc23)cc1OC | 16.3
32 | CN(CC(=O)Nc1cccc(F)c1)CC(=O)N1CCCCC1 | 1.48
33 | CCN(CC)CC(=O)Nc1nn(-c2ccccc2)nc1C(N)=O | 0.619
34 | Cc1ccn2cc(CCNC(=O)C3CC=CCC3C(=O)O)nc2c1 (stereo not drawn) | -9.24
35 | Cc1nc(Cl)c(C#N)c2c1CCCC2 | -10.9
36 | CCOC(=O)c1ccc(NC(=O)N2CC(C)OC(C)C2)cc1 (stereo not drawn) | -3.62
37 | COCCNC(=O)c1onc(CSc2ccccc2F)c1C(=O)O | 7.29
38 | COc1ccc(C(=O)Nc2ccccc2-c2ccccc2)cc1Cl | -1.38
39 | O=C(CNS(=O)(=O)c1ccc(Cl)cc1)OCC(=O)N1CCCc2ccccc21 | -2.96
40 | CS(=O)(=O)N1CCN(c2ccc(NC(=O)c3ccc(Br)o3)cc2)CC1 | -2.68
41 | NC(=O)Nc1ccc(C(=O)OCC(=O)NC2CCCCC2)cc1 | 21.4
42 | CC(/C=C/c1ccc2c(c1)OCO2)=N/NC(=O)C1COc2ccccc2O1 (stereo not drawn) | -5.9
43 | CCOC(=O)c1oc2ccccc2c1CSc1nnnn1-c1ccc(C)cc1 | 3.63
44 | CCCC(=O)Nc1cccc(C(=O)Nc2ccccc2OCC)c1 | -14.7

Row | Structure (SMILES) | hERG current change (%, negative = inhibition) at 10uM [%]
45 | Cc1oc2ccc(OS(C)(=O)=O)cc2c1C(=O)OC(C)C | -9.09
46 | CC(C)=CCc1c(O)cc(O)c2c(=O)c(O[C@@H]3O[C@@H](C)[C@H](O)[C@@H](O)[C@H]3O)c(-c3ccc(O)cc3)oc12 | 17.1
47 | CCOC(=O)N1CCC(NC(=O)CN2C(=O)CSc3ncccc32)CC1 | -2.15
48 | Fc1ccc(C2=NOC(c3nnc(-c4ccccc4)o3)C2)cc1 (stereo not drawn) | -16.1
49 | Nc1ncnc(Nc2ccccc2Cl)n1 | 9.95
50 | COc1ccc(CNc2nc3nc(C)cc(C)n3n2)cc1OC | -12.5
51 | CC1CCN(S(=O)(=O)c2ccc3c(c2)CC(C)N3C(=O)C2CCC2)CC1 (stereo not drawn) | -2.61
52 | OCCOCCOc1cccc2[nH]ccc12 | 9.29
53 | CCN(CC)c1ccc2cc(S(=O)(=O)c3ccc(Cl)cc3)c(=O)oc2c1 | -13.3
54 | COC(=O)c1[nH]c2ccccc2c1NS(=O)(=O)c1ccc(F)c(C)c1 | -1.32
55 | CCN(CC(O)COc1ccc(OCC(O)CN(CC)C2CCCCC2)cc1)C1CCCCC1 (stereo not drawn) | 22.2
56 | Cc1c(/C(O)=C2/C(=O)C(=O)N(Cc3cccnc3)C2c2ccccn2)cnn1-c1ccccc1 (stereo not drawn) | 8.54
57 | C=CCN(c1ccc(F)cc1)S(=O)(=O)c1cc(C(=O)OCC(=O)N(C)C2CCS(=O)(=O)C2)ccc1Cl (stereo not drawn) | -31.3
58 | Cn1c(=O)cc(NCc2ccccc2)[nH]c1=O | 15
59 | O=C(NNc1ccccc1Br)C(O)(c1cccc(C(F)(F)F)c1)c1cccc(C(F)(F)F)c1 | 3.28
60 | COC(=O)C(CC(C(=O)OC)C(=O)OC)C(=O)OC | 8.79
61 | CN(C)c1ccc(N2C(=NC(=O)C3CCCO3)SC3CS(=O)(=O)CC32)cc1 (stereo not drawn) | 11.1
62 | COc1cnn(-c2cccc(Cl)c2)c(=O)c1Cl | 13.5
63 | O=C(Nc1cccc(F)c1)c1cc(S(=O)(=O)N2CCOCC2)ccc1N1CCCC1 | -34.2
64 | CC12CCC(C(=O)NCc3ccc4c(c3)OCO4)(CC1=O)C2(C)C (stereo not drawn) | -8.73
65 | CCOC(=O)N1CCN(C2CC(=O)N(c3ccccc3)C2=O)CC1 (stereo not drawn) | 13.5
66 | COc1ccc(/C=C2/NC(=O)CNC2=O)cc1 | 20.7

Row | Structure (SMILES) | hERG current change (%, negative = inhibition) at 10uM [%]
67 | CSc1nccc(NC(=O)c2ccc(C(C)(C)C)cc2)n1 | -2.01
68 | Cc1ccc(Nc2ncc3c(n2)CC(C)CC3=O)c(C)c1 (stereo not drawn) | 0.876
69 | COc1ccc(C2CC(c3cccs3)=NN2C(=O)CSc2nc3ccccc3o2)cc1 (stereo not drawn) | 15.5
70 | CN1CCN(C(=O)CCc2ccc(S(=O)(=O)NC3CCCCC3)cc2)CC1 | 14.3
71 | CCc1cccc(NS(=O)(=O)c2ccc3c(c2)NC(=O)CC(=O)N3)c1 | 31.8
72 | COc1cc(C(=O)N/N=C/c2coc3ccc(Cl)cc3c2=O)ccc1O | 14.2
73 | CCOc1ccc(-n2nnnc2SCC(=O)NC2CCCC2)cc1 | 3.2
74 | O=C(NCC1CCCO1)c1onc(CSc2ccc(F)c(F)c2)c1C(=O)O (stereo not drawn) | 1.63
75 | CCOC(=O)C(CC)n1cnc2c(nnn2-c2ccccc2)c1=O (stereo not drawn) | -14.2
76 | CC(=O)Nc1ccc(S(=O)(=O)N2CCN(C(=O)N3CCCCCC3)CC2)cc1 | 1.64
77 | Cc1c(CN2CCC(n3nccc3NC(=O)CCc3ccccc3)CC2)cnn1C | 12.6
78 | CCOC(=O)CSc1nnc(-c2cccs2)n1-c1ccccc1 | -42.8
79 | CN(C(=O)c1ccc(S(=O)(=O)N2CCCC2)cc1)C1CCCCC1 | 4.61
80 | CSc1nnc(-c2ccc(O)cc2)n1C | -8.16
81 | CCC(=O)N1CCc2cc(S(=O)(=O)CCC(=O)N3CCN(c4ccccc4)CC3)ccc21 | 3.15
82 | CN1CCN(CC(=O)Nc2ccc(Cl)cc2Cl)CC1 | -69.4
83 | C=CCn1c(SCC(C)=O)nc2scc(-c3ccco3)c2c1=O | 16.5
84 | Cc1cc(C)cc(Nc2c(F)c(F)c(F)c(F)c2C(=O)O)c1 | 20.9
85 | O=C(C1CCCN(S(=O)(=O)c2cc(Cl)ccc2Cl)C1)N1CCCC1 (stereo not drawn) | -19.5
86 | O=C(CSc1nc(C2CC2)nc2ccccc12)Nc1ccccc1Cl | 17.9
87 | CSc1ccccc1NC(=O)COC(=O)CCc1ccccc1 | 18.3
